# In paper PMC12136788:
# Some of the results follow.
# T1: UNK ZnF1-6 (called full-length) (human, UniProt Q9C0B0 30-357)
# T1 sequence: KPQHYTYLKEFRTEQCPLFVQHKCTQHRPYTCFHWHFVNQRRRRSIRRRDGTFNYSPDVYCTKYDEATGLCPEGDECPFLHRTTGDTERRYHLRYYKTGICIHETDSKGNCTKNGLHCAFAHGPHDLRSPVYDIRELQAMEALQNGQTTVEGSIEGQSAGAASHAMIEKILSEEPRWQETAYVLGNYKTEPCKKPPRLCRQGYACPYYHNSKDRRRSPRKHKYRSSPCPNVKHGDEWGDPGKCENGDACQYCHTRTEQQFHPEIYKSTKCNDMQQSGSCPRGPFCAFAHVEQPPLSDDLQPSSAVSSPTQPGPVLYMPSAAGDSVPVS
# B1: chr7:29923496:29923595:-|3pUTR|ENSG00000136193|msi1_unk|FALSE|overlapping (ssRNA)
# RNA: GGGAGUUCUACAGUCCGACGAUCUCACAGUGCCGAGUUGGCGGGAAAAGCAAAUUCUUUUGAAGUCUUAGUCUUUCCCUCAGUAGCGGUUUCUUUCAGGUUAACAAGAGGCAUUUGUGCACACACACAGGGCUCUUGUGUGUGCAACAGAGGAUUGAGCAUCA
# B2: chr3:7579146:7579247:+|CDS|ENSG00000196277|unk|total|mutant (ssRNA)
# RNA: GGGAGUUCUACAGUCCGACGAUCGCCAGAGGGGUUCUCAAGUGUGACAUUACAGAUCUCCAAAUCAUUUGCUCCUUGGGAUACCGCAUUCUUCUCAUGGUCACAUGUACUGUGUAUGCCAUCAAGACUCGGGGUGUACCCGAGCAACAGAGGAUUGAGCAUCA
# B3: chr10:119917856:119917957:+|CDS|ENSG00000107651|unk|FALSE|unique (ssRNA)
# RNA: GGGAGUUCUACAGUCCGACGAUCUAAGAAAAUCACUUUGCCAAGUAUUGGUCGAUUUCGUCACUUUACCAAUGAAACUUUGCUAGAUAUUUUAUUUUAUAACAGCCCCACCUACUGUCAGACAAUUGUGGAAAAAGUAGGAAUCAACAGAGGAUUGAGCAUCA
# B4: chr7:100033925:100034026:+|CDS|ENSG00000106261|msi1|FALSE|bound_elsewhere (ssRNA)
# RNA: GGGAGUUCUACAGUCCGACGAUCCAGAGCUCGGACCUCACCAAGCAUCAGAGAAUUCACACGGGGGAGAAACCCUAUGAAUGUAGUGAAUGUGGAAAAGCUUUCAACCGAAACUCAUACCUGAUUUUGCAUCGGAGAAUUCACCAACAGAGGAUUGAGCAUCA
# B5: chr14:23275577:23277187:-|CDS|ENSG00000290292|control|control|control (ssRNA)
# RNA: GGGAGUUCUACAGUCCGACGAUCGCAGGUGCUGGAUUGGUUUGACUCUCGAUUACCUCAGCCAGCUGAGGUGGUAGUUUGUCUAGAUGAAGAAGAGGAAGAGGAGGAGGAAGAACUGCCAGAAGAUGAUGAGGAAGAGGAGGACAACAGAGGAUUGAGCAUCA
# B6: chr2:16549458:16552935:-|three_prime_utr|ENSG00000197872|control|control|control (ssRNA)
# RNA: GGGAGUUCUACAGUCCGACGAUCUUGCUACUGGAGUCCUUUAACAACAUCUAUAACGAUAAAAAAUUCCUAAUUGUUUGUGGUAGUAUUUUAAUUCUAGAUGUGUUAUCUCUCUGGGAAGUAUAGUUUAUAGAAACACAAAAUCAACAGAGGAUUGAGCAUCA
# B7: chr1:193096648:193096749:-|CDS|ENSG00000023572|msi1_unk|total|mutant (ssRNA)
# RNA: GGGAGUUCUACAGUCCGACGAUCCAACAGGUUCCAAGAAUAUUUGUCAAUGGUACUUUUAUUGGAGGUGCAACUGACACUCACCGGCUUCACAAAGAAGGAAAAUUGCUCCCACCCGUUCAUCAGUGUUAUUUAAAAAAAAGUCAACAGAGGAUUGAGCAUCA
# B8: chr6:11183298:11183399:-|3pUTR|ENSG00000111859|msi1|total|mutant (ssRNA)
# RNA: GGGAGUUCUACAGUCCGACGAUCACAUUUCACAUUUUUAAAACCAAAUGUUCAAUCUGUAUUACUCUUUGCCGUCUUGUAUGCCGAGGCUAUUUUUAAAUCAUUAAAUUUUCCGAUCUCUGUUUUCACCGCCACUGGGUUUUCCAACAGAGGAUUGAGCAUCA
# B9: chr7:38725943:38726055:-|3pUTR|ENSG00000006715|unk|FALSE|unique (ssRNA)
# RNA: GGGAGUUCUACAGUCCGACGAUCGAAAUUUUGGGGUCCAUAGUGAAUAUUUUGUUAUUUAUUUGUUUGGCUCAUUCUUUAUAUAGUAAUGGAAACAUAAGUCUAGGAGUUAGAAAUGAAUUUUUUAGACCUUAGUAAAACCAUCAACAGAGGAUUGAGCAUCA
# B10: chr5:95604386:95604487:+|3pUTR|ENSG00000164291|msi1|total|mutant (ssRNA)
# RNA: GGGAGUUCUACAGUCCGACGAUCCCUGCCAUCCAGUUCCCCCUCCAAGAAGCAAGUACCGAAACCACCUGCUUACGCAUUUUCCGAGAUUGGCCACAAAUUUAUAAACAAAUGUAUAUAUUCCUUUCCCCCUACACAAACGGUCAACAGAGGAUUGAGCAUCA
# B11: chr9:19286831:19286940:+|CDS|ENSG00000137145|unk|total|mutant (ssRNA)
# RNA: GGGAGUUCUACAGUCCGACGAUCAUUCCAGGAUGUGAAGUGAUCCCCGCCACACCCUAUGGUCGCUGUGCCAAUGUCAACAACCGUUCAACUACUUCACAAAGAAUCUUUAUCACUUAUCGAAGGGCUCCUCCAGUUCGACCCCAACAGAGGAUUGAGCAUCA
# B12: chrX:135156539:135157311:-|three_prime_utr|ENSG00000169551|control|control|control (ssRNA)
# RNA: GGGAGUUCUACAGUCCGACGAUCUUUAUUCUGUUUAUCUUUCCUUUUAUGAGCAGUAAAGGGGCUGGUUUAACUUAAAAGGUUAGCUUAGUAAGCCUAAAUAGUAUUUUAUAUAUGACUUUUCUGGCAAAUCUAAUUGAGACACAACAGAGGAUUGAGCAUCA
# B13: chr16:46799225:46799326:-|3pUTR|ENSG00000155330|unk|total|mutant (ssRNA)
# RNA: GGGAGUUCUACAGUCCGACGAUCUUACAUUUGGAAGUACAUGUAUAUAUGUUUAUAUAUUUUUAUUCUCAGGAUCUAUUUUCCCGGGAACUAUUUUUUUAAAUUAUUCUUUUGUGCUGCCUUAACCCAUUUAUUACCGUUUGACAACAGAGGAUUGAGCAUCA
# B14: chr4:165277806:165277983:-|three_prime_utr|ENSG00000229894|control|control|control (ssRNA)
# RNA: GGGAGUUCUACAGUCCGACGAUCCUUUUUACAUAAUGAAAGAACAACCCAGCAAUUGUCUCUUAAUGCGAUGACACUAUUCAUAGACUUUGAUUUUAUUUAUAAGCCACUUGCUGCGUGACCCUCCAAGUAGACCUGUGGCUUCAACAGAGGAUUGAGCAUCA
# B15: chr1:151249111:151249212:+|3pUTR|ENSG00000143398|unk|FALSE|unique (ssRNA)
# RNA: GGGAGUUCUACAGUCCGACGAUCGCAGAUUGUUGAAUUCCUGUUCUAUCCCUUCUCUAUCCCACCCUGCCUUGAUAAUAUGUUAGCCCAUACCCCAAAUAACUGUCUAUAUUAGACACCCCCAGCCAGUUUCUGGCUGCCUGUCAACAGAGGAUUGAGCAUCA
# B16: ENSG00000124766:be:win_601|CDS|ENSG00000124766|bound_else_gene|NA|bound_elsewhere_windowed (ssRNA)
# RNA: GGGAGUUCUACAGUCCGACGAUCUCCAAAGUGGCGGGCGGCGCGGGCGGUGGGGUUAGCAAACCGCACGCCAAGCUCAUCCUGGCAGGCGGCGGCGGCGGCGGGAAAGCAGCGGCUGCCGCCGCCGCCUCCUUCGCCGCCGAACAACAGAGGAUUGAGCAUCA
# B17: chr15:93027272:93027374:+|3pUTR|ENSG00000173575|unk|total|mutant (ssRNA)
# RNA: GGGAGUUCUACAGUCCGACGAUCCCAGGAAUCUGUGAGGAUGGUAUUCCCUGGAGUCUGGCUUUGAAAGAUUUCAUUGUUGGCCGAAAUAACAGGUUGAGAAAGAGGGAGUCCGCAUCACCUAAAACCUGCACGUGAACAAGGCAACAGAGGAUUGAGCAUCA
# B18: ENSG00000013374:stop:overlap|stop_codon|ENSG00000013374|stop_codon|NA|stop_codon (ssRNA)
# RNA: GGGAGUUCUACAGUCCGACGAUCAAAGAAAAGAAUAUGGAAUAGCCUUGCCAUGUCUGUUGGACGCUGACAAAUAUUUCUGGUAGGCGCUUUUGUACUUGGUGAACACCAGCUUUAAGGAAGAUGGCCCAGACUAUACAGAACCAACAGAGGAUUGAGCAUCA
# B19: chr15:52550718:52550819:-|3pUTR|ENSG00000128989|msi1|FALSE|unique (ssRNA)
# RNA: GGGAGUUCUACAGUCCGACGAUCUUUAUAUAAACUUUUUAAAUGUAGAAACUUUUUACUUCCACACUCAGUUUUGGAGACCCUAGAAUAAAAGGCUUCAAUACUCUGCAUUCCAUGCCCUCUGCCACCUGCUUUUUUUUCCCCCAACAGAGGAUUGAGCAUCA
# B20: chr17:58090057:58090109:+|3pUTR|ENSG00000264364|msi1_unk|total|mutant (ssRNA)
# RNA: GGGAGUUCUACAGUCCGACGAUCGGGCCGGAUCCGCUUGAAUCUUUUUUUUCUUUACAUUUUUCUCCUGUCUGCUCCCUGCUCCGCCCUCAGUUUCCUCAUUCCUCUGGAGUUCUCUCCGAGCAGCCCCUGUUGUCCGUUGGCCAACAGAGGAUUGAGCAUCA
# B21: chr15:93024873:93024975:+|3pUTR|ENSG00000173575|unk|total|mutant (ssRNA)
# RNA: GGGAGUUCUACAGUCCGACGAUCGGUCCAGCUCUGAUUCGGGUCACCACUCCUGCACUUUGGCACCCCAUCCCAUUCCAGCCCCGUUCUGGCCUCCCACUUUGACGGGCACUUGGAGGAGGAGCUGACUGUGUGUGUACCAGCCAACAGAGGAUUGAGCAUCA
# B22: chr9:128390415:128390516:+|3pUTR|ENSG00000167118|msi1|total|mutant (ssRNA)
# RNA: GGGAGUUCUACAGUCCGACGAUCCUUACAGCUCAUUCUGCUGGGGGCCGAGAUGAGGGGAGGGAGUAAGUUAAACCUUGGACCCGCAAGCCGAAGCCUGGGGGGAUGCGUGUGCCUCAGUUUCCUCCUCCACAACUGAAUAUACAACAGAGGAUUGAGCAUCA
# Biological target: T1, UNK ZnF1-6 (called full-length)
# Assay: nsRBNS (natural sequence RNA bind-n-seq); RBNS binding buffer (assumed for nsRBNS): 25 mM Tris pH 7.5, 150 mM KCl, 3 mM MgCl2, 0.01% Triton X-100, 500 ug/ml BSA, 20 U/ml SUPERase-In, 4 C; UNK is unkempt and MSI1 is Musashi-1; names of the RNAs are library labels; protein concentration not given here; high values mean tight binding
row,Binder,binding signal [enrichment R]
1,B1,0.396
2,B2,0.501
3,B3,2.36
4,B4,0.607
5,B5,1.85
6,B6,4.45
7,B7,0.398
8,B8,1.08
9,B9,7.17
10,B10,1.51
11,B11,0.7
12,B12,1.68
13,B13,1.87
14,B14,1.27
15,B15,2.26
16,B16,0.449
17,B17,0.486
18,B18,2.66
19,B19,3.77
20,B20,1.37
21,B21,4.11
22,B22,1.04
